{
  "source": "the supplement of paper PMC6660600",
  "about": "“Odorant Inhibition in Mosquito Olfaction” (iScience, 2019)",
  "note": "The other results are listed elsewhere or left out. Repeats are few or missing, and single values can be far off.",
  "data": [
    {"tested_on": "CquiOR32-CquiOrco", "experiment": "current response class (signed ordinal: positive = inward/excitatory, negative = outward/inhibitory) (ordinal score (-3..3)); higher = stronger inward (excitatory) current", "details": "1 mM; holding potential (mV): -80", "description": "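Xenopus oocytes co-expressing Culex quinquefasciatus CquiOR32 with CquiOrco were challenged by two-electrode voltage clamp (holding -80 mV) with a panel of about 200 odorants at 1 mM source dose (2 s stimulus). The response was scored qualitatively: + to +++ for weak to strong inward currents, x to xxx for weak to strong outward (inhibitory, reverse) currents, +/- and x/- for very weak currents (S/N 2-5), and - for no response. Scale: negative = stronger reverse/inhibitory current.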", "values": [
      {"smiles": "C=C(C)[C@@H]1CC=C(C=O)CC1", "note": "[(S)-(-)-perillaldehyde]", "current response class": "inactive: 0"},
      {"smiles": "C=CC(=C)C", "note": "[isoprene]", "current response class": "inactive: 0"},
      {"smiles": "COC(=O)c1ccccc1N", "note": "[methyl anthranilate]", "current response class": "active: 1"},
      {"smiles": "CCCCOC(C)=O", "note": "[butyl acetate]", "current response class": "active: 0.5"},
      {"smiles": "Cc1ccc(O)cc1C", "note": "[3,4-dimethylphenol]", "current response class": "inactive: 0"},
      {"smiles": "OCCOc1ccccc1", "note": "[2-phenoxyethanol]", "current response class": "active: 1"},
      {"smiles": "CC1=CC(=O)C=CC1=O", "note": "[methyl-p-benzoquinone]", "current response class": "inactive: 0"},
      {"smiles": "CC(C)[C@]12CC(=O)[C@H](C)[C@H]1C2", "note": "[thujone]", "current response class": "active: -3"},
      {"smiles": "O=Cc1ccco1", "note": "[furfural]", "current response class": "inactive: 0"},
      {"smiles": "COC(=O)c1ccccc1C(=O)OC", "note": "[dimethyl phthalate]", "current response class": "active: -1"},
      {"smiles": "Cc1ccccc1O", "note": "[2-methylphenol]", "current response class": "active: 1"},
      {"smiles": "CSSC", "note": "[methyl disulfide]", "current response class": "inactive: 0"},
      {"smiles": "O=C/C=C/c1ccccc1", "note": "[(E)-cinnamaldehyde]", "current response class": "inactive: 0"},
      {"smiles": "O=C1CCCN1", "note": "[2-pyrrolidinone]", "current response class": "inactive: 0"},
      {"smiles": "CCCCOC(=O)c1ccccc1C(=O)OCCCC", "note": "[dibutyl phthalate]", "current response class": "inactive: 0"},
      {"smiles": "O=Cc1ccccc1", "note": "[benzaldehyde]", "current response class": "inactive: 0"},
      {"smiles": "CCC(C)=O", "note": "[2-butanone]", "current response class": "active: 1"},
      {"smiles": "CCC1CCC(=O)O1", "note": "(stereo not drawn) [γ-hexalactone]", "current response class": "active: 2"},
      {"smiles": "CC1CCC(=O)O1", "note": "(stereo not drawn) [γ-valerolactone]", "current response class": "inactive: 0"},
      {"smiles": "c1ccncc1", "note": "[pyridine]", "current response class": "active: 2"},
      {"smiles": "CCOC(=O)Cc1ccccc1", "note": "[ethyl phenylacetate]", "current response class": "inactive: 0"},
      {"smiles": "Cc1ccc(O)c(C)c1", "note": "[2,4-dimethylphenol]", "current response class": "inactive: 0"},
      {"smiles": "COc1ccccc1OC", "note": "[1,2-dimethoxybenzene]", "current response class": "active: 2"}
    ]}
  ]
}
